PMC4336329 (PLoS ONE, 2015)
About 14,000 (4.5%) of roughly 310,000 compounds showed an effect of 50% or more. The effect is printed as a negative number. Some of the results follow.

Each compound was assayed against human ether-à-go-go-related gene (hERG) potassium channel (human, UniProt Q12809) (assay: primary screen, population patch clamp on CHO cells stably expressing hERG).
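Note: peak tail current of the secondary pulse compared with the same well before compound.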

Sequence of human ether-à-go-go-related gene (hERG) potassium channel (Q12809 whole entry, looked up): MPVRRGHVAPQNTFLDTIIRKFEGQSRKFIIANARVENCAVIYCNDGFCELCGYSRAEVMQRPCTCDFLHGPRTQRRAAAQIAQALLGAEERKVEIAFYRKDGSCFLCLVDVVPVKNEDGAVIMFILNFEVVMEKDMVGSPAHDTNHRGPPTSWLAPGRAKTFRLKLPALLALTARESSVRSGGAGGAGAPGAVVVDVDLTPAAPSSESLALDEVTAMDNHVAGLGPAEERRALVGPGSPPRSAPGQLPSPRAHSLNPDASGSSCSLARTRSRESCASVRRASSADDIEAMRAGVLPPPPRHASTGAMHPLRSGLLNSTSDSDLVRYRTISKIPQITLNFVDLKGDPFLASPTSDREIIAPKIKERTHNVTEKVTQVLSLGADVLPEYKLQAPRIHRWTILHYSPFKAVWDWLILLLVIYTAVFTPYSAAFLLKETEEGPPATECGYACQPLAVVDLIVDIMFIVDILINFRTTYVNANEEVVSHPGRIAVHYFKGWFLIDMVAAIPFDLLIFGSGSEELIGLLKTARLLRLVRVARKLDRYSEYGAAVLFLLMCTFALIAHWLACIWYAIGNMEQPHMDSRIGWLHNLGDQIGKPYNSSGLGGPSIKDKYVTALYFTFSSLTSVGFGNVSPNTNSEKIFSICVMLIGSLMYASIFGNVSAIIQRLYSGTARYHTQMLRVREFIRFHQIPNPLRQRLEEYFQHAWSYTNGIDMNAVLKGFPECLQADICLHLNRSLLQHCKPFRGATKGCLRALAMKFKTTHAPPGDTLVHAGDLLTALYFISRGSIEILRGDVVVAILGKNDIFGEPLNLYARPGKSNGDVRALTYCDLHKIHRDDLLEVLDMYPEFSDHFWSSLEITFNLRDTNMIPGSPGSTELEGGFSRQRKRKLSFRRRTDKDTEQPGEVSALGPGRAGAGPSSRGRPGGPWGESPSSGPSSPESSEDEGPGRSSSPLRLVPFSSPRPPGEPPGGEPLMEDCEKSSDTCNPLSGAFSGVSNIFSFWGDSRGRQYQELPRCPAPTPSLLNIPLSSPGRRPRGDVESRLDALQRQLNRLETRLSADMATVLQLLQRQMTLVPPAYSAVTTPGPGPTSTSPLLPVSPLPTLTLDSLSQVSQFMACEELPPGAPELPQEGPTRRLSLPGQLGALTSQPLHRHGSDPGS

For `Cn1nc(-c2ccc(Cl)cc2)c2cc(C(=O)N3CCOCC3)sc21`, which “hERG current change (%, negative = inhibition) at 10uM” value is on record?
The value was -44.8%.

Which “hERG current change (%, negative = inhibition) at 10uM” value does the source give for `COc1ccccc1C(=O)NCC(=O)OCC(=O)N(CC(C)C)c1c(N)n(Cc2ccccc2)c(=O)[nH]c1=O` here?
Its value is -1.93%.

For `Cc1cc(C(=O)Nc2nnc(C3CC3)s2)c(C)s1`, which “hERG current change (%, negative = inhibition) at 10uM” value is on record?
Its value is 23.7%.

How did the “hERG current change (%, negative = inhibition) at 10uM” value turn out when `O=C1NC2(CCCCC2)C(=O)N1CCS(=O)(=O)Oc1ccccc1` was run?
Its value is 2.81%.

How did the “hERG current change (%, negative = inhibition) at 10uM” value turn out when `COc1cc(OC)cc(/C(N)=N/O)c1` was run?
The value was 8.06%.

With `CC(Oc1ccc(F)cc1)c1ccnc2nc(/N=C/N(C)C)nn12` (stereo not drawn) as the compound, how does the “hERG current change (%, negative = inhibition) at 10uM” value read?
Its value is -2.84%.

With `Cc1ccnc(SCC(=O)N2CCC(C(N)=O)CC2)n1` as the compound, how does the “hERG current change (%, negative = inhibition) at 10uM” value read?
Its value is -8.43%.

`CCc1nn2c(NCCCO)cc(C)nc2c1-c1ccc(F)cc1` was tested. Which “hERG current change (%, negative = inhibition) at 10uM” value did it give?
Its value is -19.7%.

How did the “hERG current change (%, negative = inhibition) at 10uM” value turn out when `CCCSC1=C(C#N)C(c2ccccc2OCC)CC(=O)N1` (stereo not drawn) was run?
The value was 1.88%.

Which “hERG current change (%, negative = inhibition) at 10uM” value does the source give for `O=C(CCNS(=O)(=O)c1ccc2[nH]c(=O)oc2c1)NCc1ccccc1` here?
Its value is 10.6%.

For `COc1ccc(NC(=O)C(NC(=O)Cc2cccs2)c2ccc(C)cc2)cc1` (stereo not drawn), which “hERG current change (%, negative = inhibition) at 10uM” value is on record?
The value was 5.92%.

`Cc1ccc(S(=O)(=O)N2CCC(C(=O)N[C@@H](C)C(=O)NCc3ccccc3)CC2)cc1` was tested. Which “hERG current change (%, negative = inhibition) at 10uM” value did it give?
The value was 2.37%.

With `CC(C)c1cccc(C(C)C)c1NC(=O)CN1CCCC1` as the compound, how does the “hERG current change (%, negative = inhibition) at 10uM” value read?
The value was 23.8%.

Which “hERG current change (%, negative = inhibition) at 10uM” value does the source give for `COc1ccc(-c2sc3ccc(N4CCOCC4)cc3c2-c2ccc(O)cc2)cc1` here?
The value was 9.46%.

`COc1cc(C(C(=O)NC2CCCC2)N(C(=O)c2snc(C(N)=O)c2N)c2ccccc2)cc(OC)c1OC` (stereo not drawn) was tested. Which “hERG current change (%, negative = inhibition) at 10uM” value did it give?
The value was -32.4%.

With `CCCCn1cnc2c(cnn2-c2ccc(F)cc2)c1=O` as the compound, how does the “hERG current change (%, negative = inhibition) at 10uM” value read?
The value was -28%.

Which “hERG current change (%, negative = inhibition) at 10uM” value does the source give for `CN(C(=O)OCc1ccccc1)C(CC(N)=O)C(=O)O` (stereo not drawn) here?
Its value is 2.49%.

Which “hERG current change (%, negative = inhibition) at 10uM” value does the source give for `CCOC(=O)NC(NCCc1ccccc1)(C(F)(F)F)C(F)(F)F` here?
Its value is 13.8%.

For `COCCCn1c(=O)/c(=C\c2ccc(OC(F)F)c(OC)c2)s/c1=C(/C#N)C(N)=O`, which “hERG current change (%, negative = inhibition) at 10uM” value is on record?
The value was -17.6%.

For `COc1ccccc1N1C(=O)C2CC=CC(C)C2C1=O` (stereo not drawn), which “hERG current change (%, negative = inhibition) at 10uM” value is on record?
The value was 10.5%.

Which “hERG current change (%, negative = inhibition) at 10uM” value does the source give for `COc1ccc(N2C(=O)CCC(C(=O)NCc3cccnc3)C2c2ccc(OC)c(OC)c2)cc1` (stereo not drawn) here?
The value was 5.56%.

How did the “hERG current change (%, negative = inhibition) at 10uM” value turn out when `CN(CCn1ccnc1)Cc1cn(-c2ccccc2)nc1-c1ccc2c(c1)OCO2` was run?
The value was -62.9%.

With `CCC(CC)COC(=O)C(C#N)c1nc2ccccc2nc1N1CCOCC1` (stereo not drawn) as the compound, how does the “hERG current change (%, negative = inhibition) at 10uM” value read?
Its value is -7.91%.

Which “hERG current change (%, negative = inhibition) at 10uM” value does the source give for `COc1ccc(-c2oc3ccccc3c2C(=O)OCc2ccccc2OC)cc1` here?
The value was -4.02%.

For `COc1ccc(OCc2cc(/C=N\NC(=O)c3ccccc3)ccc2OC)cc1`, which “hERG current change (%, negative = inhibition) at 10uM” value is on record?
The value was -16.9%.

How did the “hERG current change (%, negative = inhibition) at 10uM” value turn out when `O=C(Nc1ccccc1)Nc1cccc(Cl)c1` was run?
Its value is 24.8%.

With `Cc1occc1C(=O)Nc1cccc([N+](=O)[O-])c1` as the compound, how does the “hERG current change (%, negative = inhibition) at 10uM” value read?
The value was -16.9%.

`Cc1cc(C(=O)NN)c2cc(Br)ccc2n1` was tested. Which “hERG current change (%, negative = inhibition) at 10uM” value did it give?
The value was 6.66%.

With `O=C(NC1CC1)C1=C[C@H](c2ccc(Br)cc2)C[C@H](OCc2ccc(CO)cc2)O1` as the compound, how does the “hERG current change (%, negative = inhibition) at 10uM” value read?
The value was -71.1%.

For `COc1ccc(N2CCN(C3CC(=O)N(Cc4ccc(N5CCCC5=O)cc4)C3=O)CC2)cc1` (stereo not drawn), which “hERG current change (%, negative = inhibition) at 10uM” value is on record?
Its value is -3.75%.

With `O=C(O)Cn1cnc2sc3c(c2c1=O)CCCC3` as the compound, how does the “hERG current change (%, negative = inhibition) at 10uM” value read?
The value was 16.1%.

Which “hERG current change (%, negative = inhibition) at 10uM” value does the source give for `O=C(NC1CCCCC1)c1cccc(S(=O)(=O)N2CCCCC2)c1` here?
The value was 6.94%.

How did the “hERG current change (%, negative = inhibition) at 10uM” value turn out when `Cc1cc(Cl)c2c(c1)[C@]1(C(=O)N2)[C@@H]2C(=O)N(Cc3ccccc3)C(=O)[C@@H]2[C@@H]2CCCN21` was run?
Its value is 1.31%.

With `COc1ccc(C2C(C(=O)OCC(=O)Nc3ccc(C)cc3)CCC(=O)N2c2ccc(OC)cc2)cc1` (stereo not drawn) as the compound, how does the “hERG current change (%, negative = inhibition) at 10uM” value read?
The value was -62.4%.

Which “hERG current change (%, negative = inhibition) at 10uM” value does the source give for `Cc1cnnc2ccc3c(no[n+]3[O-])c12` here?
The value was 6.47%.

`CCOC(=O)CSc1ccc(S(=O)(=O)N2CCCC2)cc1[N+](=O)[O-]` was tested. Which “hERG current change (%, negative = inhibition) at 10uM” value did it give?
Its value is 13.6%.

How did the “hERG current change (%, negative = inhibition) at 10uM” value turn out when `O=C(NC1CCCC1)C1CCN(C(=O)c2ccccc2Cl)CC1` was run?
Its value is 21%.

With `COc1ccc(CNC2CCSc3ccccc32)cc1OC.O=C(O)C(=O)O` (stereo not drawn) as the compound, how does the “hERG current change (%, negative = inhibition) at 10uM” value read?
Its value is 9.97%.

`CN(C)C(=O)Nc1cnc2ccccc2c1` was tested. Which “hERG current change (%, negative = inhibition) at 10uM” value did it give?
Its value is 4.29%.

For `Cc1cccc2cc(CN(Cc3cccnc3)C(=O)c3cccs3)c3nnnn3c12`, which “hERG current change (%, negative = inhibition) at 10uM” value is on record?
The value was 26.1%.

Which “hERG current change (%, negative = inhibition) at 10uM” value does the source give for `CC(C)CNC(=O)COC(=O)CNC(=O)c1cc(Cl)cc([N+](=O)[O-])c1` here?
Its value is -8.91%.

Which “hERG current change (%, negative = inhibition) at 10uM” value does the source give for `CC(NC(=O)CN1CCN(c2ccccc2F)CC1)c1ccccc1` (stereo not drawn) here?
Its value is -0.99%.

How did the “hERG current change (%, negative = inhibition) at 10uM” value turn out when `COc1ccc(CNC(=O)C2CCN(C(=O)[C@@H]3Cc4ccccc4CN3)CC2)cc1` was run?
Its value is -24.8%.

For `CC(C)(C)N(C(=O)Cn1nnc(-c2ccc(F)cc2)n1)C(C(=O)NC1CCCC1)c1ccncc1.Cl` (stereo not drawn), which “hERG current change (%, negative = inhibition) at 10uM” value is on record?
The value was 4.92%.

Which “hERG current change (%, negative = inhibition) at 10uM” value does the source give for `Cc1c(NC(=O)CSc2nnc(C(C)Oc3ccc(Cl)cc3)n2-c2ccccc2)c(=O)n(-c2ccccc2)n1C` (stereo not drawn) here?
The value was -7.78%.

Which “hERG current change (%, negative = inhibition) at 10uM” value does the source give for `CCOc1ccccc1-c1cc(-c2n[nH]c(=S)n2CC)c2ccccc2n1` here?
Its value is 1.4%.

With `COC(=O)[C@@H](Cc1ccccc1)NC(=O)NCCc1ccc(OC)c(OC)c1` as the compound, how does the “hERG current change (%, negative = inhibition) at 10uM” value read?
Its value is 15.7%.

For `COc1cc(C2C3C(=O)N(c4ccc(F)cc4)C(=O)C3ON2c2ccccc2)ccc1O` (stereo not drawn), which “hERG current change (%, negative = inhibition) at 10uM” value is on record?
Its value is -0.249%.

For `CCC12CC3CC(C1)CC(C(=O)Nc1nn[nH]n1)(C3)C2`, which “hERG current change (%, negative = inhibition) at 10uM” value is on record?
Its value is -19.9%.

`CCOc1ccc(NC(=O)CN(C)C(=O)Cc2n[nH]c(=O)c3ccccc23)cc1OCC` was tested. Which “hERG current change (%, negative = inhibition) at 10uM” value did it give?
The value was -9.6%.

`CCC(=O)Nc1ccc(S(=O)(=O)c2ccc(NC(=O)CC)cc2)cc1` was tested. Which “hERG current change (%, negative = inhibition) at 10uM” value did it give?
Its value is 0.428%.

`COc1ccc(S(=O)(=O)N2CCN(CC(O)COc3ccc(C#N)cc3)CC2)cc1OC` (stereo not drawn) was tested. Which “hERG current change (%, negative = inhibition) at 10uM” value did it give?
Its value is -46.9%.

With `Cl.OC(CN1CCCCC1)CN(c1ccccc1)c1ccccc1` (stereo not drawn) as the compound, how does the “hERG current change (%, negative = inhibition) at 10uM” value read?
The value was -63.2%.

How did the “hERG current change (%, negative = inhibition) at 10uM” value turn out when `O=c1c2cc3c(cc2[nH]c(=S)n1C1CCN(Cc2ccccc2)CC1)OCO3` was run?
Its value is -42.3%.
